# Test results taken from PubChem BioAssay AID2060627 (Molecular Pharmacology Branch, DTP, NCI, 2025).
# Not every entry of the source has a single result; some have several. The other results are left out here. There may be further records. The values listed for one entry are repeated measurements (runs, samples, wells, individuals or studies).
# Tested on: 156681-154-R-J1-PDC complex spheroid viability
# Assay: Anticancer human tumor 156681-154-R-J1-PDC patient-derived melanoma cell line growth inhibition [CLK]
# Description: A high-throughput screen of multi-cell type tumor spheroids was designed to identify active combinations of […] and targeted small molecules. Complex spheroids include a stromal component modeled by human endothelial cells (HUVEC) and fibroblasts modeled by human mesenchymal stem cells (MSCs). The concentration ranges selected for each drug and investigational agent were based upon clinically achievable concentrations if the clinical Cmax of the agent was known.
# Compounds. The drugs and investigational agents: cirtuvivint (SM08502; NSC835563), CC-671 (NSC850746), vemurafenib (NSC761431), tapotoclax (NSC804041), sotorasib (NSC818433), adagrasib (NSC831453), MRTX-1133 (NSC836407), BAY2416964 (NSC825713), copanlisib (NSC816437), inavolisib (NSC800729), abemaciclib (NSC768073), osimertinib (NSC779217), entinostat (NSC756642), eltanexor (KPT-8602, NSC794443), venetoclax (NSC766270), ceralasertib (NSC777638), bortezomib (NSC756655), olaparib (NSC753686), talazoparib (NSC767125), alisertib (NSC759677), peposertib (NSC802822), gemcitabine (NSC613327), 5-fluorouracil (NSC19893), SN-38 (NSC673596), oxaliplatin (NSC266046), paclitaxel (NSC125973), and doxorubicin (NSC123127), were obtained from the National Cancer Institute (NCI) Developmental Therapeutics Program Chemical Repository. […] If the clinical Cmax for an agent had not been determined, the highest concentration tested was 10 microM. […]
# 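Note: spheroids exposed to the agents for seven days.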
# 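Throughout, for viability, T/C: 100% = DMSO vehicle control viability.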
structure (smiles),measurement,setting,value
CNC(=O)c1ccc(Nc2nc(OC3CCCC3)c3c(-c4ccc5nc(C)oc5c4)c[nH]c3n2)c(OC)c1,"viability, T/C","compound alone 10 µM, stronger effect = lower value","46.5, 52.5, 50.1, 60.7, 46, 55.9, 33.9, 45.3, 51.5, 49.6, 50.7, 49%"
same,IC50,"drug combinations, compound alone, run of 08/15/2023","> 10 µM, 313 nM, 239 nM, 234 nM, 903 nM, 546 nM, 148 nM, 463 nM, 241 nM, 282 nM, 199 nM, 287 nM"
